A word on the pIC50: it is the negative decadic logarithm of the IC50, by convention in mol/L.

From the supplement of paper PMC4967469 come the findings set out here.

pIC50: −log10 of the molar value. IC50 is the fitted dose that halves viability relative to control wells, and lower means more sensitive; a limit (>, <) means that the fit lies beyond the doses tested. For AUC the same curve is integrated over the 256-fold range of doses and scaled to a fraction: 1 means no effect, lower means more sensitive. For some of these results: An inferred top dose comes from the curve model; the source does not state it. For some of these results: Drugs with an entry number were screened twice under separate entries, and the two screens often disagree. A value given as a limit tells only on which side of the number the result lay.

Common to all, as to experiment: Viability of human cancer cell lines after 72 h of drug (GDSC screen)
Compound in one test: CC(C)[C@H](C(=O)Nc1ccc(C(=O)NO)cc1)c1ccccc1 [AR-42]
Conditions: top dose 5.12 µM; top dose inferred. The method, then:
(§1)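 Human cancer cell lines in 384-well plates, medium with 10% serum, drug for 72 h over a 256-fold dose range (nine 2-fold or five 4-fold steps up to the top dose). Adherent lines were fixed and stained with the nucleic acid dye Syto60, suspension lines read with resazurin; signal relative to control wells, capped at 0 and 100%. One two-parameter sigmoid per drug and line, fitted in a mixed model over all curves with the slope shared within a line.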

Compound in another test: CS(=O)(=O)N1CCN(Cc2cc3nc(-c4cccc5[nH]ncc45)nc(N4CCOCC4)c3s2)CC1 [GDC0941]
The conditions noted are these: top dose 4 µM; screen: GDSC drug entry 1527; top dose inferred. Here is the method: as §1

Compound in another test: C[C@]12O[C@H](C[C@]1(O)CO)n1c3ccccc3c3c4c(c5c6ccccc6n2c5c31)CNC4=O [CEP-701]
The conditions noted are these: top dose 2 µM; top dose inferred. The method, then:
as §1

Compound in a further test: Cc1ccc(Nc2nccc(N(C)c3ccc4c(C)n(C)nc4c3)n2)cc1S(N)(=O)=O [Pazopanib]
The conditions noted are these: top dose 8 µM. The method, then: as §1

Compound in a further test: Cn1cc(C2=C(c3ccc(Cl)cc3Cl)C(=O)NC2=O)c2ccccc21 [SB 216763]
Conditions: top dose 10 µM; top dose inferred. The method, then:
as §1

Take COLO-684 (endometrium, suspension): the AUC was determined as 0.789 with AR-42; 0.757 with GDC0941; 0.761 with CEP-701; 0.973 with Pazopanib; 0.977 with SB 216763. For the same cell line, the pIC50 with AR-42 was 5.59; in the test with GDC0941, 5.81; in the test with CEP-701 it was 6.10; with Pazopanib, less than 5.10; in the test with SB 216763, less than 5.00.

Take COLO-800 (melanoma, adherent): the AUC is 0.886 with AR-42; 0.616 in the test with GDC0941; 0.559 with CEP-701; 0.967 with Pazopanib; 0.981 with SB 216763. Besides, the pIC50 is less than 5.29 in the test with AR-42; 6.29 with GDC0941; 6.74 in the test with CEP-701; less than 5.10 with Pazopanib; less than 5.00 with SB 216763.

Consider “COR-L23 (large cell lung carcinoma, adherent)”, for which the AUC is 0.545 with AR-42; 0.845 with GDC0941; 0.723 with CEP-701; 0.934 with Pazopanib; 0.985 in the test with SB 216763. Also, the pIC50 is 6.37 with AR-42; 5.56 in the test with GDC0941; 6.28 with CEP-701; less than 5.10 with Pazopanib; less than 5.00 with SB 216763.

As for CP50-MEL-B (melanoma, adherent), the AUC was 0.586 with AR-42; 0.879 with GDC0941; 0.731 with CEP-701; 0.979 with Pazopanib; 0.976 with SB 216763. In addition, the pIC50 with AR-42 is 6.26; with GDC0941 it was less than 5.40; in the test with CEP-701 it was 6.25; with Pazopanib, less than 5.10; in the test with SB 216763 it was less than 5.00.

As for CS1 (bone, adherent), the AUC with AR-42 was found to be 0.631; with GDC0941 it was 0.916; with CEP-701, 0.696; with Pazopanib, 0.908; in the test with SB 216763, 0.971. Also, the pIC50 is 6.11 with AR-42; less than 5.40 in the test with GDC0941; 6.32 with CEP-701; less than 5.10 with Pazopanib; less than 5.00 in the test with SB 216763.

For Ca9-22 (head and neck, adherent), the AUC turned out to be 0.316 with AR-42; 0.914 with GDC0941; 0.794 in the test with CEP-701; 0.979 with Pazopanib; 0.964 with SB 216763. Also, the pIC50 in the test with AR-42 was 6.99; with GDC0941, less than 5.40; in the test with CEP-701 it was 6.07; in the test with Pazopanib, less than 5.10; with SB 216763, less than 5.00.

Regarding Ca-Ski (cervix, adherent), the AUC in the test with AR-42 stood at 0.537; in the test with GDC0941, 0.676; with CEP-701, 0.528; with Pazopanib, 0.946; with SB 216763, 0.982. The pIC50 with AR-42 was 6.39; with GDC0941, 6.08; in the test with CEP-701 it was 6.82; in the test with Pazopanib, less than 5.10; with SB 216763, less than 5.00.

On to CaR-1 (large intestine, adherent), for which the AUC with AR-42 stood at 0.633; in the test with GDC0941 it was 0.737; with CEP-701, 0.539; with Pazopanib it was 0.914; with SB 216763 it was 0.914. Besides, the pIC50 in the test with AR-42 is 6.05; in the test with GDC0941, 5.77; in the test with CEP-701, 6.77; with Pazopanib, less than 5.10; with SB 216763 it was less than 5.00.

Regarding Capan-2 (pancreas, adherent), the AUC in the test with AR-42 came to 0.973; with GDC0941, 0.658; with CEP-701, 0.881; with Pazopanib, 0.9; with SB 216763, 0.985. In addition, the pIC50 was less than 5.29 with AR-42; 6.12 with GDC0941; less than 5.70 in the test with CEP-701; less than 5.10 with Pazopanib; less than 5.00 with SB 216763.

Turning to DAN-G (pancreas, adherent), the AUC with AR-42 is 0.608; with GDC0941 it was 0.675; with CEP-701, 0.947; in the test with Pazopanib, 0.967; in the test with SB 216763, 0.991. Also, the pIC50 with AR-42 was 6.22; in the test with GDC0941 it was 6.15; in the test with CEP-701, less than 5.70; with Pazopanib, less than 5.10; with SB 216763 it was less than 5.00.

Take DB (B-cell lymphoma, suspension): the AUC came out at 0.336 with AR-42; 0.902 with GDC0941; 0.542 with CEP-701; 0.978 in the test with Pazopanib; 0.922 with SB 216763. Moreover, the pIC50 in the test with AR-42 is 6.98; with GDC0941, less than 5.40; with CEP-701, 6.78; in the test with Pazopanib it was less than 5.10; with SB 216763 it was less than 5.00.

On to DBTRG-05MG (glioma, adherent), for which the AUC was determined as 0.721 in the test with AR-42; 0.8 with GDC0941; 0.751 with CEP-701; 0.931 in the test with Pazopanib; 0.972 with SB 216763. The pIC50 with AR-42 is 5.82; in the test with GDC0941 it was 5.63; with CEP-701 it was 6.12; with Pazopanib it was less than 5.10; with SB 216763, less than 5.00.

For DK-MG (glioma, adherent), the AUC in the test with AR-42 was 0.752; in the test with GDC0941, 0.872; with CEP-701, 0.662; in the test with Pazopanib it was 0.774; with SB 216763, 0.969. The pIC50 was 5.60 with AR-42; less than 5.40 in the test with GDC0941; 6.36 in the test with CEP-701; 5.32 with Pazopanib; less than 5.00 in the test with SB 216763.
